# Test results from the supplement of paper PMC3334620.
# In all, about 33,000 sequences were measured (“E-score (-0.5 to 0.5)”: median about -0.036, highest 2% from about 0.37 on). This is one part of the list.
# Target: T1, Yer064c (UniProt P40041)
# T1 sequence: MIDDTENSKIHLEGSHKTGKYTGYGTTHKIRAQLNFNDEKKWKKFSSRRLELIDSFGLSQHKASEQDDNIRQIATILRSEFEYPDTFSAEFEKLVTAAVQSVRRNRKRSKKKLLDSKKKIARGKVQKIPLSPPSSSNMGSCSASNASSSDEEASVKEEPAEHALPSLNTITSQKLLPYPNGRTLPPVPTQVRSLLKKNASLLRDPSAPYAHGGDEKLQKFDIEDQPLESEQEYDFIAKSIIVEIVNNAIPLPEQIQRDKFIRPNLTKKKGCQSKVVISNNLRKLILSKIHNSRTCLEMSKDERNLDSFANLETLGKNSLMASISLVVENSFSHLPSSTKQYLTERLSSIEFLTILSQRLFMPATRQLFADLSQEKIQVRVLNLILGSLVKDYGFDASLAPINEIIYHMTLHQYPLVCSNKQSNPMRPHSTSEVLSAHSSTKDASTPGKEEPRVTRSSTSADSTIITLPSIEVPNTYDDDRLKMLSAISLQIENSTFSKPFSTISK
# Test: PBM E-score (8-mer binding enrichment) (E-score (-0.5 to 0.5)); higher = stronger / more preferred TF binding; most listed sequences are background and not binding sites
# Conditions: protein concentration: 200 nM; construct: GST-full length
# How it was run: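 Yeast transcription factors carrying a GST tag, as full-length proteins or DNA-binding domains, were produced by PURExpress in vitro transcription/translation. About 100-200 nM protein was applied to universal all-10-mer Agilent arrays, double-stranded by primer extension on fresh or once-stripped slides. Bound protein was detected with fluorescent anti-GST, and scans were normalised with masliner. The Universal PBM Analysis Suite gave each ungapped eight-base word, pooled with its reverse complement, an E-score, a modified Wilcoxon-Mann-Whitney statistic.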
row,Sequence,PBM E-score
1,GGGAAACA,-0.0345
2,AATGTATG,-0.0582
3,ATTTTTTA,0.0802
4,AGCCCGCG,-0.172
5,TGTCGGAA,-0.184
6,GATCGCCA,-0.201
7,GACCGGAA,-0.133
8,CATCCATG,-0.0786
9,CAAACGAC,0.0734
10,AGGGCGAA,-0.223
11,AAAGCGTG,-0.042
12,CCTGAGGC,-0.16
13,CCAGCCCA,-0.172
14,AACGGGGA,0.122
15,GCCAAGGA,-0.101
16,CGCTTTAC,-0.205
17,CGTGTTTA,0.0622
18,CGCGGACA,0.0886
19,GCCTGCGA,-0.22
20,AATGAACT,0.0229
21,TCATCCAA,0.236
22,GCAATTGA,0.0418

row,Sequence,PBM E-score
1,CTGTTAGC,-0.0341
2,GCGGGAGA,-0.15
3,ACTAAATC,0.32
4,CACACGGC,-0.0241
5,CAGTATAG,0.0294
6,AAAGATGA,0.286
7,GGAAGTGA,0.0158
8,AGATTGAG,0.191
9,AAGATGAC,0.312
10,CAATCACC,0.343
11,CAAAACGC,-0.00379
12,CGCGCGCC,-0.033
13,ACAGAGGC,-0.124
14,ATAAGTAC,-0.0959
15,CCAAGGCG,-0.0198
16,ATTAAGGG,-0.0881
17,CCGCAGAC,-0.262
18,CGTTTTTC,-0.104
19,GACACCGC,-0.106
20,AAGAAGGA,-0.00132
21,TGAGTGCA,0.0616
22,GAGTCAAC,0.474

row,Sequence,PBM E-score
1,AAGGATAT,-0.0431
2,ACACCGCA,-0.0478
3,CCCGCAAG,-0.346
4,AATTAGGA,0.0204
5,AATTTTTA,0.037
6,AACACCCG,0.08
7,ACACGTAC,-0.0311
8,AGAGGCGA,-0.198
9,CAACGGTC,-0.186
10,AGAGGCAA,-0.189
11,ACCTTCTA,-0.0941
12,GCCCCATA,-0.0804
13,GAGCAATC,0.146
14,GGAGGCCA,-0.386
15,AGTGCTCG,0.0135
16,CCTACGCG,-0.176
17,GCTAGGAA,-0.123
18,CCAACAGA,-0.124
19,CAGAAAAA,-0.104
20,CACCTACC,-0.159
21,ATCTCGAG,0.077
22,GGGCTAAA,-0.133

row,Sequence,PBM E-score
1,CATTCTAG,0.0408
2,ACACCGCT,-0.08
3,CGGGTTTA,-0.017
4,AGCGGGGA,-0.0712
5,ACGACCAA,0.00728
6,CTCGTGAC,0.307
7,CCTGGCCG,-0.212
8,GGACCTAC,-0.132
9,CACAGAGG,-0.107
10,ACACTTCG,-0.0332
11,CCTATGCA,-0.157
12,AAATTTCT,-0.252
13,AGGTAATG,-0.0492
14,GCTTGGAA,-0.102
15,AATTTAAA,0.171
16,GACCACGC,0.322
17,CCACACGC,-0.0721
18,TCTCGCCA,0.0809
19,CAAGTAAA,-0.0198
20,CGTTGTTC,-0.289
